Reference: PubChem BioAssay (Tox21)
Several values for one entry are separate records, joined by “and”; a condition that tells them apart may be missing. Equal values may be shown once. Inconclusive results, whose numbers are uncertain, are shown with a selection of clear calls. Where the call is inconclusive, the potency comes from a doubtful curve fit. The source holds several records for some structures; these can differ, active in one and inactive in another. Activity calls are given as the source filed them. Calls come from the whole dose curve; as a rule, active = well fitted inhibition curve with a large enough effect in the repeat runs; inconclusive = weak or mixed curves; inactive = no such curve, though single readings can be large or run the other way.

target: Cytochrome P450 1A2 (Homo sapiens) (UniProt P05177); experiment: Cytochrome P450 Family 1 Subfamily A Member 2 (CYP1A2) small molecule antagonists: luciferase reporter qHTS assay (AID 1671199); settings: P450-Glo CYP1A2 enzyme, luciferin luminescence, 1 h; series mostly up to 115 µM; activity change, negative = inhibition: at the top concentration; note: nearly all actives have a fitted effect of over 50% in size
UniProt P05177, sequence (P05177 whole entry, looked up): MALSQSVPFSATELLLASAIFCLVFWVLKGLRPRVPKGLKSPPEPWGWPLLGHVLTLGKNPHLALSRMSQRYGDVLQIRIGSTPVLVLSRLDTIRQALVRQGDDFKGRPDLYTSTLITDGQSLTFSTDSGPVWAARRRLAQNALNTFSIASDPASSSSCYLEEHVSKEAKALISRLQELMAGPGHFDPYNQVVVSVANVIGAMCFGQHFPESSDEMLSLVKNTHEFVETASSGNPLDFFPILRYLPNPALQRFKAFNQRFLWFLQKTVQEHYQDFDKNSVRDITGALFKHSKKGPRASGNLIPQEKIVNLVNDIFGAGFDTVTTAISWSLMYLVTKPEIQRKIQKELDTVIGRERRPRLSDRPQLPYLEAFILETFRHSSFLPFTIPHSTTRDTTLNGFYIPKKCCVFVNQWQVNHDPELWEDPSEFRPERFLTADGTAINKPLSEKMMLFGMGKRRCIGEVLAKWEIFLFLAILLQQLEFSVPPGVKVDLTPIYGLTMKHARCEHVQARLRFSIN
How it was run: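 Enzymatic CYP1A2 assay, human, luminescent: 10 min compound–enzyme–substrate preincubation, 1 h NADPH-dependent turnover, 20 min detection step, room temperature throughout. Reduced light indicates lower CYP1A2 activity.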
% is set by controls: 0 for no effect and ±100 for the full control effect; potency is the fitted concentration of half-maximal effect; tags give direction and shape of the fitted curve.

| Structure (SMILES) | Potency | activity change, negative = inhibition |
| --- | --- | --- |
| CC[C@H](C)C(=O)O[C@H]1C[C@@H](C)C=C2C=C[C@H](C)[C@H](CC[C@@H]3C[C@@H](O)CC(=O)O3)[C@H]21 | inconclusive: 45.4 µM [inhibitor, full curve] and inconclusive: 63 µM [inhibitor, partial curve, poor fit] | – |
| C=CCc1cc(S(=O)(=O)c2ccc(O)c(CC=C)c2)ccc1O | inconclusive: 79.6 µM [inhibitor, partial curve, poor fit] | – |
| O=C1NCN(c2ccccc2)C12CCN(CCCC(c1ccc(F)cc1)c1ccc(F)cc1)CC2 | – | inactive: -0.241% [at 53 µM] |
| O=c1ccc2ccccc2o1 | active: 36.3 µM and active: 31.7 µM and inactive | – |
| CCOc1nc2cccc(C(=O)OC(C)OC(=O)OC3CCCCC3)c2n1Cc1ccc(-c2ccccc2-c2nn[nH]n2)cc1 (configuration not stated) | – | inactive: -7.74% |
| CC(=O)c1ccc(S(=O)(=O)NC(=O)NC2CCCCC2)cc1 | inactive | – |
| CC1=C(/C=C/C(C)=C/C=C/C(C)=C\C=O)C(C)(C)CCC1 | inconclusive: 67.2 µM [inhibitor] | – |
| c1ccc2occc2c1 | active: 28.3 µM | – |
| COc1ccccc1OCCNCC(O)COc1cccc2[nH]c3ccccc3c12 (configuration not stated) | active: 8.12 µM | – |
| COC(=O)c1c(Cl)c(Cl)c(C(=O)OC)c(Cl)c1Cl | active: 317 nM and active: 154 nM | – |
| Cc1cc(Cc2cc(C)cc(C(C)(C)C)c2O)c(O)c(C(C)(C)C)c1 | inconclusive: 35.6 µM [inhibitor, partial curve] | – |
| O=C(OC[C@H]1O[C@@H](OC(=O)c2cc(O)c(O)c(OC(=O)c3cc(O)c(O)c(O)c3)c2)[C@H](OC(=O)c2cc(O)c(O)c(OC(=O)c3cc(O)c(O)c(O)c3)c2)[C@@H](OC(=O)c2cc(O)c(O)c(OC(=O)c3cc(O)c(O)c(O)c3)c2)[C@@H]1OC(=O)c1cc(O)c(O)c(OC(=O)c2cc(O)c(O)c(O)c2)c1)c1cc(O)c(O)c(OC(=O)c2cc(O)c(O)c(O)c2)c1 | inconclusive: 21.5 µM [inhibitor, partial curve] | – |
